# From PMC4336329 (PLoS ONE, 2015)
# Out of some 310,000 compounds screened, about 2,200 (0.71%) showed an effect of 50% or more. The effect is printed as a negative number. This is one part of the list.
# Molecular target: human ether-à-go-go-related gene (hERG) potassium channel (human, UniProt Q12809)
# Assay: primary screen, population patch clamp on CHO cells stably expressing hERG
# human ether-à-go-go-related gene (hERG) potassium channel, sequence (Q12809 whole entry, looked up): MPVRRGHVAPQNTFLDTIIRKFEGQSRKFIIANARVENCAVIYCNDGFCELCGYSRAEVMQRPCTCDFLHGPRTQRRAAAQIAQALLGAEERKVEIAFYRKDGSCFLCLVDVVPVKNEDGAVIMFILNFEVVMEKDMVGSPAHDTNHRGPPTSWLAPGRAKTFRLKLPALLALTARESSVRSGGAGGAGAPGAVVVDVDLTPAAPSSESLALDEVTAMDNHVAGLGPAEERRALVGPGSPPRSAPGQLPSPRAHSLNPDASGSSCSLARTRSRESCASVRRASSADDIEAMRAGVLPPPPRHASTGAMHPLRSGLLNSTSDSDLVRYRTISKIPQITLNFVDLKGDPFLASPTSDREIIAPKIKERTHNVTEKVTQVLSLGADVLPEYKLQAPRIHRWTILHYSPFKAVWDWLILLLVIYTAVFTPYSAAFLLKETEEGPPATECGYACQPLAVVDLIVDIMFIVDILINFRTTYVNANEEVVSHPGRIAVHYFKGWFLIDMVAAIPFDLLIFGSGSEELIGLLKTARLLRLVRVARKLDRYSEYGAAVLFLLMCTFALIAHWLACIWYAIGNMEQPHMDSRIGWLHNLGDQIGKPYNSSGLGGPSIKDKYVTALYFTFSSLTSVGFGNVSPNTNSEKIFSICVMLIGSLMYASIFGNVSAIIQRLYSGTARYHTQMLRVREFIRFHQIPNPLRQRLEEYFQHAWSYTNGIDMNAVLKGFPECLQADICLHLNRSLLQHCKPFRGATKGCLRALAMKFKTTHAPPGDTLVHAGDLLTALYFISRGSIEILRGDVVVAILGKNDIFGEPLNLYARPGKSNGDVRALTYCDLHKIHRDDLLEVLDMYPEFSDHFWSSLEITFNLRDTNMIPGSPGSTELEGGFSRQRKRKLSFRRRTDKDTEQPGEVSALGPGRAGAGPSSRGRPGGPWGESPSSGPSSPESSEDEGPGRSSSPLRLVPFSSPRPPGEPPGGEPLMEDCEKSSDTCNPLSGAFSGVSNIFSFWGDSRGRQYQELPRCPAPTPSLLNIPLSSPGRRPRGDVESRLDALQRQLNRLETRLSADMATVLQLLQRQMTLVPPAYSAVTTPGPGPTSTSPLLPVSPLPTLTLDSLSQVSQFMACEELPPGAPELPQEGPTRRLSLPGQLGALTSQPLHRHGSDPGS
row,SMILES,"hERG current change (%, negative = inhibition) at 1uM [%]"
1,CC(C)(C)NC(=O)CSc1ncccc1-c1nc2ccccc2[nH]1,7.27
2,COc1ccc(N=CC2=C(O)CC(C)(C)CC2=O)cc1,6.56
3,Cc1nn(CC(=O)NCc2ccco2)c(C)c1[N+](=O)[O-],17.2
4,CCC(Sc1ccccn1)C(=O)Nc1cccc([N+](=O)[O-])c1 (stereo not drawn),1.42
5,Cc1ccc(C(=O)NCc2nnc(SCC(=O)Nc3sc4c(c3C#N)CCCC4)n2C)cc1,-2.94
6,CCOc1ccccc1CN1CCNC(=O)C1CC(=O)NCCc1ccccn1 (stereo not drawn),4.28
7,Cc1ccc(C(C)C)c(OCC(=O)Nc2ccc3c(c2)nc(CCN2CCCCC2)n3C)c1,-41.9
8,Nc1c(N(Cc2ccco2)C(=O)c2cccc(F)c2)c(=O)[nH]c(=O)n1Cc1ccccc1,13.7
9,N#Cc1cccc(CN2CCC(=O)N([C@H](CO)Cc3ccccc3)CC2)c1,1.5
10,O=C(NC1CCCC1)C(c1cccs1)N(Cc1ccco1)C(=O)Cn1nnc(-c2cccs2)n1 (stereo not drawn),9.41
11,COc1ccc(C(=O)N/N=C/c2sc(=O)n(Cc3cccc(C(=O)O)c3)c2Cl)cc1,12.2
12,CC(=O)n1cc([C@H]2C=C(C(=O)N3CCN(Cc4ccccc4)CC3)O[C@@H](OCCCCO)C2)c2ccccc21,10.9
13,CCCn1c(=S)[nH]c2ccccc2c1=O,6.7
14,O=C1OC(/C(=C\Nc2ccc(F)cc2F)[N+](=O)[O-])c2ccccc21 (stereo not drawn),20.3
15,COCCCN1C(=O)C(O)=C(C(=O)c2ccco2)C1c1cccc(Br)c1 (stereo not drawn),10.7
16,COC(=O)[C@H](Cc1ccccc1)NC(=O)NCCc1ccccc1F,10.8
17,CN1Cc2c(N3CCOCC3)nc(SCCC#N)c(C#N)c2CC1(C)C,5.21
18,Cc1[nH]n2c(=O)c3c(nc2c1-c1ccc(Cl)cc1)CCC3,7.97
19,COc1ccc(-c2nnc(SCC(=O)Nc3cc(S(=O)(=O)N4CCCCC4)ccc3Cl)n2N)cc1,9.06
20,CSc1nc2[nH]ncc2c(=O)n1-c1ccccc1,9.08
21,O=C(c1ccccc1)N1CCN(c2ccc([N+](=O)[O-])c(NCc3cccnc3)c2)CC1,8.37
22,Cc1cc(C)c(C#N)c(SCc2[nH]nc3c2C(c2ccc(F)cc2)C(C#N)=C(N)O3)n1 (stereo not drawn),3.97

row,SMILES,"hERG current change (%, negative = inhibition) at 1uM [%]"
1,Cc1cccc(N2CC(C(=O)O)CC2=O)c1C (stereo not drawn),11.6
2,COc1ccc2oc(C(=O)OC(C)C(=O)N3CCC(C)CC3)c(C)c2c1 (stereo not drawn),7.2
3,Cl.NCCOc1ccccc1-c1ccccc1,-3.53
4,CCOC(=O)/C(=N/Nc1ccccc1)Sc1nnc(CCc2ccccc2)n1-c1ccccc1,1.94
5,Cc1cc(OCC(F)(F)C(F)(F)C(F)(F)C(F)(F)C(F)(F)C(F)F)nc(N)n1,14.7
6,CCCNC(=O)NC(=O)CSc1ccc(C)cc1C,18.1
7,COc1ccc(-n2c(=O)c3ccccc3n(CC(=O)NC3CCCC3)c2=O)cc1,12.8
8,CNC(=S)N(CCc1cccc(C)c1)Cc1cc2cc(OC)c(OC)cc2[nH]c1=O,6.34
9,O=C(O)CCc1nn2c3ccccc3n(CC(=O)O)c2nc1=O,9.42
10,CCCn1c(/N=C/c2c[nH]c3ccccc23)nc2ccccc21,4.56
11,COc1ccc(C=O)cc1Cn1c(=O)n(CCC(=O)NCc2ccco2)c(=O)c2sccc21,5.91
12,CCCn1nnc(NC(=O)/C=C/c2ccc(C(C)C)cc2)n1,8.19
13,O=C(Nc1ccc(Br)cc1)c1cc(S(=O)(=O)Nc2ccccn2)ccc1Cl,7.32
14,O=C1C2CCCN2c2ccc(S(=O)(=O)N3CCOCC3)cc2N1Cc1cccc(C(F)(F)F)c1 (stereo not drawn),14.9
15,CC(C(=O)Nc1ccc2[nH]c(=O)[nH]c2c1)N1CCN(Cc2ccc3c(c2)OCO3)CC1 (stereo not drawn),8.98
16,CC(C)c1ccc(/C=N/n2c(COc3ccccc3)n[nH]c2=S)cc1,12
17,C=CCN1C(=O)c2ccc(C(=O)N(C)CC(=O)Nc3c(C)cccc3C)cc2C1=O,18.1
18,O=C1C(Cl)=C(N2CCOCC2)C(=O)N1c1cccc(C(F)(F)F)c1,10.9
19,Cc1ccc(-c2nc3ccccc3s2)cc1NC(=O)c1ccc2c(c1)OCO2,12.7
20,COc1ccccc1NC(=O)COC(=O)Cc1c[nH]c2ccccc12,0.794
21,CCN(CC(=O)NCc1cccs1)C(=O)c1ccc(S(=O)(=O)Nc2ccccc2)cc1,6.41
22,CCOC(=O)C(CC)/C(C)=N\NC(=O)c1cccc(C)c1 (stereo not drawn),40.9

row,SMILES,"hERG current change (%, negative = inhibition) at 1uM [%]"
1,CC(C)n1c(SCC(=O)Nc2ccc3c(c2)OCO3)nc2c1c(=O)n(C)c(=O)n2C,9.19
2,Cc1ccccc1N(C(=O)c1snc(C(N)=O)c1N)C(C(=O)NCc1ccccc1)c1ccc(O)cc1 (stereo not drawn),13.4
3,CC1CC1C(=O)N1CCN(S(=O)(=O)c2cccc(F)c2)CC1 (stereo not drawn),12.5
4,Cc1ccc(C(=O)O)cc1Nc1ncnc2sc3c(c12)CCC3,13.6
5,COC(=O)c1c(C)[nH]c(/C=N/Nc2ccccc2)c1C,9.59
6,COc1ccc(CN2C(=O)c3oc4ccccc4c(=O)c3C2c2ccc(O)c(OC)c2)cc1 (stereo not drawn),11
7,CCOc1ncccc1C(=O)Nc1cc(S(=O)(=O)N2CCCCC2)ccc1C,5.65
8,CCN(CC)c1ncc(C)c(=O)[nH]1,13.4
9,CN(CCC#N)C(=O)c1cc2c(s1)-c1ccccc1SC2,13.8
10,CC(C)CNC(=O)c1cc2nc3c(c(C(F)(F)F)n2n1)CCc1ccccc1-3,7.19
11,CCc1ccc2c(c1)C(=O)c1ccccc1C2=O,9.46
12,Cc1cccc(CSc2nnc([C@@H]3CCCN3C(=O)OC(C)(C)C)o2)c1,12.2
13,Cc1nn(-c2ccccc2)c(N2CCCC2)c1/C=N/NC(=O)c1cc(-c2cccnc2)nc2ccccc12,10.6
14,CSCCC(C(=O)N1CC2(C)CC1CC(C)(C)C2)N1C(=O)c2ccccc2C1=O (stereo not drawn),6.74
15,C/C(CC(=O)Nc1ccc(Br)cc1)=N\NC(=O)c1cccc(O)c1,15.6
16,CC(C)Cc1ccc(CN2CCCC(NC(=O)CCN3CCCO3)C2)cc1 (stereo not drawn),-17.3
17,Cc1ccc(C(=O)NCCNC(=O)c2ccco2)cn1,9.25
18,CCC(=O)N(CCC(Cc1ccccc1)c1ccco1)Cc1ccco1 (stereo not drawn),17.2
19,Cc1ncc(CN2CCCC(C(=O)c3cccc(Cl)c3)C2)s1 (stereo not drawn),6.69
20,O=C(NCc1ccco1)Nc1ccc(OC(F)(F)F)cc1,3.97
21,CCC(=O)Nc1cccc(NC(=O)CN2CCN(c3ccccc3OC)CC2)c1,10.1
22,COc1ccc(/C=C(\C#N)C(=O)OCC(=O)Nc2c(C)cccc2C)cc1,7.38

row,SMILES,"hERG current change (%, negative = inhibition) at 1uM [%]"
1,O=C(CN1C(=O)N/C(=C\c2ccccc2OCc2ccc(C(=O)O)cc2)C1=O)Nc1ccccc1F,1.95
2,CC(C)(C)NC(=O)NC(=O)CN1CCN(C(c2ccccc2)c2ccccc2)CC1,4.05
3,CCS(=O)(=O)c1nc(S(=O)(=O)c2ccc(C)cc2)c(N2CCCC(C)C2)s1 (stereo not drawn),13.9
4,CCOCCCNC(=S)NCCCNc1nc2ccc(C)cc2cc1C#N,8
5,CCOC(=O)N1CCN(C(=O)CSc2nc(=O)n3ccc(C)cc3n2)CC1,10.2
6,O=C(CO/N=C1\CCCc2nonc21)Nc1ccccc1Cl,6.66
7,CN(C)CC#CCOCCOCCC#N,19.2
8,Cc1ccc2sc(N(CCCN(C)C)C(=O)c3ccc(Br)s3)nc2c1C.Cl,-35.1
9,CC(C)C1CC(CCN)(Cc2ccccc2)CCO1.Cl (stereo not drawn),8.49
10,Cc1ccccc1-n1c(=O)cc(N2CCC3(CC2)OCCO3)[nH]c1=O,13.6
11,Cc1ccccc1C1CC(=O)NC2=C1C(=O)CCC2 (stereo not drawn),20.6
12,CCOC(=O)N1CCN(C(=O)C2CCN(CC3CCCCC3)CC2)CC1.O=C(O)C(=O)O,14.8
13,CCc1nnc(NC(=O)CSc2nnc(-c3c[nH]c4ccccc34)n2CC)s1,-17.4
14,CN(C)/C(=N\OC(=O)c1ccccc1)c1nonc1N,9.09
15,Cc1ccccc1NS(=O)(=O)c1cc(C(=O)Nc2cccc([N+](=O)[O-])c2)ccc1C,5.72
16,COc1ccc(-c2noc(CCC(=O)NC3CCCC3)n2)cc1,11.1
17,C=CCNc1nc(-c2ccc(Cl)cc2)cs1,11.1
18,Cc1nnc(SCc2cc(=O)[nH]c(/N=C(\N)Nc3ccccc3)n2)s1,1.55
19,Cc1cc(C)c2oc(C(=O)N3CCN(C)CC3)cc(=O)c2c1,19.1
20,N/C(=C\C(=O)c1cc(Cl)ccc1O)C(Cl)(Cl)Cl,6.83
21,COc1ccc(C(=O)NC(=S)N2CCN(c3ccccc3OC)CC2)cc1,-2.48
